Measurements taken from PubChem BioAssay AID504832 (National Center for Advancing Translational Sciences (NCATS), 2011).
About 18,000 (5.8%) of roughly 310,000 compounds were called active. The inconclusive results got no clear call from the source; some entries with a clear call stand among them for comparison. The call rests on the fitted dose curve; in most records, active means well fitted inhibition curve with a large enough effect; inconclusive means small, poorly fitted or top-dose-only effect, or another doubt; inactive means no such curve, though single readings can be large or run the other way. No potency is given beside an inconclusive call; the fits are too rough.

Experiment: Primary qHTS for delayed death inhibitors of the malarial parasite plastid, 48 hour incubation
Settings: P. falciparum luciferase growth in erythrocytes; series mostly up to 28.7 µM
How it was run: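 Erythrocytes infected with P. falciparum carrying an integrated firefly luciferase reporter (2% hematocrit, 0.1% parasitemia final) were exposed to compounds in RPMI 1640 with 0.5% Albumax at 37 C, 5% CO2. Growth inhibition was scored as reduced luminescence.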
Potency means the concentration at half of the fitted maximal effect; tags describe the fitted curve by direction and shape.

Row | SMILES | Potency
1 | COc1ccccc1OCCNC(=O)CN(c1cccc(C)c1)S(=O)(=O)c1ccccc1 | active: 14.7 µM
2 | O=C(NC(=S)N1CCCc2ccccc21)c1ccc([N+](=O)[O-])cc1 | inconclusive [inhibitor, single point]
3 | Cc1ccc(-c2nn[nH]n2)o1 | inactive
4 | CC1CN(S(=O)(=O)c2ccc(C(=O)Nc3nnc(-c4ccco4)o3)cc2)CC(C)O1 (stereo unspecified) | inconclusive [inhibitor, partial curve, poor fit]
5 | CCCCNC(=O)c1oc2ccc(S(=O)(=O)N3CCCC3)cc2c1C | inconclusive [inhibitor, partial curve, poor fit]
6 | CCOC(=O)c1ccccc1NC(=O)CN(c1ccccc1OC)S(C)(=O)=O | inconclusive [inhibitor, full curve, poor fit]
7 | CCC(=O)N1c2ccc(S(=O)(=O)CCC(=O)N3CCN(c4ccccc4)CC3)cc2CC1C (stereo unspecified) | inconclusive [inhibitor, full curve]
8 | O=C(c1cc([N+](=O)[O-])cc([N+](=O)[O-])c1)N1CCN(Cc2ccc3c(c2)OCO3)CC1 | inconclusive [inhibitor, partial curve, poor fit]
9 | C=CCOC(=O)c1ccc(-n2cnc(C)n2)nc1 | inactive
10 | CCOC(=O)N1CCN(C(=O)CCCn2nnnc2CN2CCC(C)CC2)CC1 | inactive
11 | CC(=O)Nc1ccc(C(=O)OCc2ccc(Br)cc2)cc1 | inconclusive [inhibitor, single point]
12 | COc1ccccc1CN1CCN(Cc2nc(Cc3ccccc3)no2)CC1 | inconclusive [inhibitor, single point]
13 | CCOc1ccc(C(C(=O)NCC2CCCO2)N(C(=O)c2snc(C(N)=O)c2N)c2ccccc2F)cc1 (stereo unspecified) | inconclusive [inhibitor, partial curve, poor fit]
14 | Cc1cccc(C)c1NC(=O)C(NC(=O)c1ccccn1)c1ccc([N+](=O)[O-])cc1 (stereo unspecified) | inconclusive [inhibitor, single point]
15 | CC(=O)Nc1ccccc1N(CC(O)Cn1c2ccccc2c2ccccc21)S(=O)(=O)c1ccc(C)cc1 (stereo unspecified) | inconclusive [inhibitor, partial curve, poor fit]
16 | COc1cccc(-n2c(SCC(=O)Nc3nc4ccccc4s3)nc3ccccc3c2=O)c1 | inconclusive [inhibitor, single point]
17 | CN(NC(=O)COc1ccccc1)C1=NS(=O)(=O)c2ccccc21 | inactive
18 | Cc1ccc(S(=O)(=O)N2[C@@H](c3ccc(Cl)cc3)C(C(=O)O)=CC[C@H]2c2ccc(Cl)cc2)cc1 | inactive
19 | Cc1ccc(NC(=O)c2nc[nH]c2C(=O)Nc2ccc(C)cc2)cc1 | inconclusive [inhibitor, full curve, poor fit]
20 | CCc1nnc(NS(=O)(=O)c2ccc(NC(=O)Nc3ccc(OC)cc3)cc2)s1 | inactive
21 | COc1ccc(/C=N/N2C(=O)CN(C(=O)c3ccccc3)C2c2ccc(OC)cc2)cc1 (stereo unspecified) | inconclusive [inhibitor, single point]
22 | COc1cccc(/C=N/Nc2nc(-c3cccnc3)nc3ccccc23)c1 | inconclusive [inhibitor, single point]

Row | SMILES | Potency
23 | COc1ccc(NC(=O)c2nc[nH]c2C(=O)N[C@H](C)c2ccccc2)cc1 | inconclusive [inhibitor, single point]
24 | CNc1ccc(Br)cc(C(=O)/C=C/c2cccc(OC)c2OC)c1=O | inconclusive [inhibitor, single point]
25 | Cn1c(SCC(=O)NC(c2ccccc2)c2ccccc2)nnc1-c1cccs1 | inconclusive [inhibitor, single point]
26 | Cc1cc(=O)oc2c(C)c(OCC(=O)N3CC[C@@]4(O)CCCC[C@H]4C3)ccc12 | inactive
27 | CCN(CC)c1ccc(/C=N/NC(=S)NCc2ccco2)cc1 | inconclusive [inhibitor, single point]
28 | CC(C)(C)n1nnnc1C(c1cccc(C#N)c1)N1CCCCCC1 (stereo unspecified) | inconclusive [inhibitor, single point]
29 | Cc1ccc(C(=O)N(C)Cc2ccc(N3CCOCC3)cc2)cc1S(=O)(=O)NCc1ccccc1 | active: 10.4 µM
30 | COc1ccccc1-c1nnc(SCC(=O)NNC(=O)c2ccccc2F)n1C | inactive
31 | Cn1c2ccccc2c2cnn(CC(=O)NCCCN3CCN(c4ccccc4F)CC3)c(=O)c21 | inconclusive [inhibitor, single point]
32 | CC(=O)c1ccc(N2CCN(C(=O)Nc3ccc(C(C)C)cc3)CC2)cc1 | inconclusive [inhibitor, partial curve]
33 | CC(NC1CCCCC1)C(=O)NN=C(c1ccccc1)c1ccccc1 (stereo unspecified) | inactive
34 | O=C(c1ccc(Cl)c(Cl)c1)N1CCC(=O)N(C(COCc2ccc(Cl)cc2)Cc2ccccc2)CC1 (stereo unspecified) | inconclusive [inhibitor, single point]
35 | CCCC(C)c1nnc(NC(=O)c2cc(C(=O)OC)cc([N+](=O)[O-])c2)s1 (stereo unspecified) | inactive
36 | COC(=O)CNC(c1ccccc1)c1cc(Br)ccc1NS(=O)(=O)c1ccccc1 (stereo unspecified) | active: 14.7 µM
37 | CCn1cc(C(=O)N[C@@H](CCSC)C(=O)NC(C)(C)CO)c(=O)c2cc3c(cc21)OCO3 | active: 1.85 µM
38 | CCC(C)(C)NC(=O)CN(C(=O)CNS(=O)(=O)c1ccc(C)cc1)c1ccc2c(c1)OCCO2 | active: 6.57 µM
39 | CCC(N)Cc1c[nH]c2ccccc12 (stereo unspecified) | inactive
40 | CC(=O)NC(Cc1ccc(F)cc1)C(=O)NC1CCN(C(=O)Nc2ccccc2C)CC1 (stereo unspecified) | inactive
41 | OC(CNCc1ccccc1F)COc1cccc2ccccc12 (stereo unspecified) | inconclusive [inhibitor, partial curve]
42 | CCCN(C(=O)CSCC(=O)Nc1ccc(OC)cc1)c1c(N)n(Cc2ccccc2)c(=O)[nH]c1=O | inactive
43 | Cc1ccc2c(c1)C(c1ccccc1)N(C(=O)CC(C)C)CC(=O)N2 (stereo unspecified) | inconclusive [inhibitor, partial curve]
44 | O=C(NCC1CCCO1)c1ccc2c(=O)n(Cc3ccco3)c(SCC(=O)N3CCCC3)nc2c1 (stereo unspecified) | inconclusive [inhibitor, partial curve, poor fit]

Row | SMILES | Potency
45 | O=C(c1cc(-c2ccccc2)nc2ccccc12)N1CCN(C2CCS(=O)(=O)C2)CC1 (stereo unspecified) | inactive
46 | O=C(Nc1cccc2oc(=O)ccc12)c1ccc([N+](=O)[O-])cc1[N+](=O)[O-] | inconclusive [inhibitor, single point]
47 | COC(=O)c1sc2nc(SCc3cccc(Cl)c3)n(N)c(=O)c2c1C | inactive
48 | CCC(=O)Nc1ccccc1C(=O)N1CCN(Cc2ccccc2)CC1 | inactive
49 | Cc1ccc(NC(=O)C(C)Sc2nnc(-c3cccnc3)n2-c2ccccc2)cc1 (stereo unspecified) | inconclusive [inhibitor, partial curve]
50 | COc1cc(C2NC(=O)C(C#N)=C(Nc3cccc(C)c3)S2)ccc1O (stereo unspecified) | inconclusive [inhibitor, partial curve, poor fit]
51 | CCOc1ccc(CCNC(=O)C(CCC(N)=O)NC(=O)OCc2ccccc2)cc1OCC (stereo unspecified) | inconclusive [inhibitor, partial curve]
52 | Cc1ccc(C)n1CCN1CCN(CC(=O)Nc2cc(C(F)(F)F)ccc2Cl)CC1 | inconclusive [inhibitor, single point]
53 | CC(=O)C1=C(O)C(=O)N(c2ccc(Br)cc2)C1c1ccc(Br)cc1 (stereo unspecified) | inactive
54 | CCN(CC)S(=O)(=O)c1ccc2c(c1)nc(SCC(=O)N1CCOCC1)n2-c1ccccc1OC | inconclusive [inhibitor, partial curve, poor fit]
55 | COc1ccc(C(C(=O)NC2CCCCC2)N(C(=O)c2ccco2)c2ccccc2C(C)=O)cc1OC (stereo unspecified) | inconclusive [inhibitor, partial curve]
56 | COC(=O)c1sc(N)c(C(=O)OC)c1COC(=O)CCNS(=O)(=O)c1ccc(C)cc1 | inconclusive [inhibitor, partial curve, poor fit]
57 | CCn1c2ccc(F)cc2c2nnc(SCCN3CCOCC3)nc21 | inconclusive [inhibitor, single point]
58 | COc1ccc(OC)c(NC(=O)/C=C/c2ccc(S(=O)(=O)N3CCOCC3)cc2)c1 | active: 11.7 µM
59 | COc1ccc(NC(=S)N(Cc2ccc(C)cc2)Cc2ccccn2)cc1 | inactive
60 | O=C(CN1C(=O)NC(c2ccccc2)(c2ccccc2)C1=O)N1CCOCC1 | inactive
61 | COc1ccccc1-n1cc(-c2ccc(C)cc2)[nH]c1=S | inconclusive [inhibitor, single point]
62 | Cc1ccsc1C(=O)N(Cc1nnc(-c2ccccc2Cl)o1)C1CC1 | inconclusive [inhibitor, single point]
63 | Cc1cccc(N(C(=O)c2snc(C(N)=O)c2N)C(C(=O)NCC2CCCO2)c2ccc(N(C)C)cc2)c1C (stereo unspecified) | inconclusive [inhibitor, full curve]
64 | COCCCNC(=O)/C(C#N)=C/c1c(N2CCN(C)CC2)nc2ccccn2c1=O | inactive
65 | CCC(Oc1ccc(C)c(C)c1)C(=O)O (stereo unspecified) | inconclusive [inhibitor, partial curve, poor fit]
66 | CCN(C(=O)COC(=O)c1n[nH]c2ccccc12)c1ccccc1 | inconclusive [inhibitor, single point]
